Whole data set: some 81,000 sequences, median “one-hybrid fitness for binding NBS DNA” near -0.1, cut for the highest 2% near 0.36. The list shows a part of the results.
B1: Caulobacter ParB omega fusion; a variant is named by its letters at X, in order, B8GW30 (parent)
chain: MESVVVGEPGMSEGRRGLGRGLSALLGEVDAAPAQAPGEQLGGSREAPIEILQRNPDQPRRTFREEDLEDLSNSIREKGVLQPILVRPSPDTAGEYQIVAGERAWRAAQRAGLKTVPIMVRELDDLAVLEIGIIENVQRADLNVLEEALSYKVLMEKFERTQENIAQTIGKSXSHVANXMRLLXLPDEVQSYLVSGELTAXHARAIAAAADPVALAKQIIEGGLSVRETEALARKAPNLSAGKSKGGRPPRVKDTDTQALESDLSSVLGLDVSIDHRGSTGTLTITYATLEQLDDLCNRLTRGI

Variants of: B1
Test: one-hybrid fitness for binding NBS DNA (the Noc-binding site; scaled: cognate 1, non-cognate 0); higher = stronger binding
Conditions: with NBS DNA site
Summary of the method: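 Pre- and post-selection plasmids were Illumina-sequenced, three replicate libraries were pooled, and any variant with under 10 reads was removed. The libraries were Caulobacter ParB with four specificity codons randomised, selected in E. coli USO through a HIS3 reporter whose site is 19 bp from the promoter. Cells grew 48 hours at 37°C on M9 without histidine, with 0.1 mM IPTG and 5 mM 3-AT. Fitness is the log change in variant-to-wild-type read ratio, rescaled against cognate and non-cognate.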

Variant | one-hybrid fitness for binding NBS DNA
RTKG | 0.223
DHRW | ≤ 0.2
FDLT | ≤ 0.2
CTMM | ≤ 0.2
DWAS | ≤ 0.2
SNHY | ≤ 0.2
NSTC | ≤ 0.2
QTQL | ≤ 0.2
EMES | ≤ 0.2
RCIH | ≤ 0.2
VHFG | ≤ 0.2
QMIN | ≤ 0.2
KRHP | ≤ 0.2
YKTY | ≤ 0.2
GSDS | ≤ 0.2
SLEE | ≤ 0.2
PGYT | ≤ 0.2
LDIC | ≤ 0.2
DVCI | ≤ 0.2
FHSS | ≤ 0.2
LPHA | ≤ 0.2
GGKG | ≤ 0.2
QPDE | ≤ 0.2
WLDC | ≤ 0.2

Variant | one-hybrid fitness for binding NBS DNA
REEI | ≤ 0.2
DGCC | ≤ 0.2
QCWL | ≤ 0.2
PAHI | ≤ 0.2
VVHG | ≤ 0.2
CYTN | ≤ 0.2
PQHG | ≤ 0.2
WSAH | ≤ 0.2
TCFG | ≤ 0.2
NVNI | ≤ 0.2
LKCC | ≤ 0.2
DSFT | ≤ 0.2
WARS | ≤ 0.2
PRKM | ≤ 0.2
SFPC | ≤ 0.2
VRLG | ≤ 0.2
APKC | ≤ 0.2
NLKR | ≤ 0.2
TRWR | ≤ 0.2
VESD | ≤ 0.2
VFVN | ≤ 0.2
MSSN | ≤ 0.2
NPAR | ≤ 0.2
SQVL | ≤ 0.2

Variant | one-hybrid fitness for binding NBS DNA
CCSQ | ≤ 0.2
QGNS | ≤ 0.2
HQTD | ≤ 0.2
ECSS | ≤ 0.2
QIIV | ≤ 0.2
DRYV | ≤ 0.2
PNWA | ≤ 0.2
PDYI | ≤ 0.2
CETR | ≤ 0.2
MIHW | ≤ 0.2
INGS | ≤ 0.2
DEDM | ≤ 0.2
NMHV | ≤ 0.2
VTPT | ≤ 0.2
CNFS | ≤ 0.2
CALF | ≤ 0.2
HLDC | ≤ 0.2
MHHY | ≤ 0.2
SNAG | ≤ 0.2
WRRT | ≤ 0.2
FHTG | ≤ 0.2
DLTR | ≤ 0.2
AGNY | ≤ 0.2
GASI | ≤ 0.2

Variant | one-hybrid fitness for binding NBS DNA
TRSQ | ≤ 0.2
RADF | ≤ 0.2
LCLI | ≤ 0.2
NPTT | ≤ 0.2
NNRW | ≤ 0.2
FDAY | ≤ 0.2
DMTC | ≤ 0.2
AQMF | ≤ 0.2
TVYF | ≤ 0.2
LRKG | ≤ 0.2
SHPG | ≤ 0.2
MTRA | ≤ 0.2
KLCR | ≤ 0.2
YEYV | ≤ 0.2
RKPM | ≤ 0.2
LCHR | ≤ 0.2
TFRW | ≤ 0.2
VQQM | ≤ 0.2
MEVE | ≤ 0.2
KADG | ≤ 0.2
PNTH | ≤ 0.2
MMAT | ≤ 0.2
EARY | ≤ 0.2
PRHI | ≤ 0.2

Variant | one-hybrid fitness for binding NBS DNA
SYCC | ≤ 0.2
MRIM | ≤ 0.2
AMAK | ≤ 0.2
RHRS | 0.585
VLPC | ≤ 0.2
RMEY | ≤ 0.2
REAR | ≤ 0.2
HPHV | ≤ 0.2
KSLY | ≤ 0.2
PIYL | ≤ 0.2
YAFS | ≤ 0.2
ISPH | ≤ 0.2
VPTL | ≤ 0.2
PSYK | ≤ 0.2
KAVL | ≤ 0.2
HVKS | ≤ 0.2
LWMS | ≤ 0.2
VPSC | ≤ 0.2
IHPY | ≤ 0.2
CLFD | ≤ 0.2
RGKE | ≤ 0.2
WYTG | ≤ 0.2
RESE | ≤ 0.2
HEWR | ≤ 0.2

Variant | one-hybrid fitness for binding NBS DNA
HDCR | ≤ 0.2
HSQF | ≤ 0.2
GAAG | ≤ 0.2
LWIV | ≤ 0.2
MHRT | ≤ 0.2
SRMQ | ≤ 0.2
GEVY | ≤ 0.2
CVPT | ≤ 0.2
LIIV | ≤ 0.2
GVHP | ≤ 0.2
MNSE | ≤ 0.2
WRER | ≤ 0.2
GFIR | ≤ 0.2
RPHM | ≤ 0.2
PDCR | ≤ 0.2
EDAS | ≤ 0.2
SRHY | ≤ 0.2
RRVE | ≤ 0.2
RCYA | 0.24
EALV | ≤ 0.2
TKCL | ≤ 0.2
AYLR | ≤ 0.2
QIRD | ≤ 0.2
WVGR | ≤ 0.2

Variant | one-hybrid fitness for binding NBS DNA
PPDF | ≤ 0.2
YKAG | ≤ 0.2
KGNR | ≤ 0.2
RNPI | ≤ 0.2
RAVA | ≤ 0.2
NTTK | ≤ 0.2
MCSL | ≤ 0.2
GKMG | ≤ 0.2
VDYT | ≤ 0.2
RCMR | 0.461
QYAI | ≤ 0.2
WLHF | ≤ 0.2
RNMH | ≤ 0.2
KLSM | ≤ 0.2
FQVT | ≤ 0.2
VHSN | ≤ 0.2
KFRC | ≤ 0.2
SEPS | ≤ 0.2
VQLA | ≤ 0.2
GVGS | ≤ 0.2
SITG | ≤ 0.2
FMPK | 0.314
RHGQ | ≤ 0.2
QANC | ≤ 0.2

Variant | one-hybrid fitness for binding NBS DNA
DALR | ≤ 0.2
ILYY | ≤ 0.2
AHGS | ≤ 0.2
CDTD | ≤ 0.2
TPYP | ≤ 0.2
IKPC | ≤ 0.2
NLAA | ≤ 0.2
PTWS | ≤ 0.2
GTKI | ≤ 0.2
IHSQ | ≤ 0.2
CFAN | ≤ 0.2
GYIS | ≤ 0.2
GATQ | ≤ 0.2
PKSV | ≤ 0.2
CFSL | ≤ 0.2
TPCQ | ≤ 0.2
NNGS | ≤ 0.2
NIPL | ≤ 0.2
SRDL | ≤ 0.2
REAG | ≤ 0.2
CVEL | ≤ 0.2
RDNR | ≤ 0.2
CVHP | ≤ 0.2
EVMM | ≤ 0.2

Variant | one-hybrid fitness for binding NBS DNA
PCTA | ≤ 0.2
QIID | ≤ 0.2
ECTD | ≤ 0.2
HIPR | ≤ 0.2
AGHD | ≤ 0.2
TLLI | ≤ 0.2
TVMY | ≤ 0.2
PLYR | ≤ 0.2
GVTS | ≤ 0.2
SCLA | ≤ 0.2
EGAK | ≤ 0.2
PEES | ≤ 0.2
HRTL | ≤ 0.2
RHVC | ≤ 0.2
EAFV | 0.24
TRDL | ≤ 0.2
NNCC | ≤ 0.2
APWW | ≤ 0.2
VVNR | ≤ 0.2
EWRT | ≤ 0.2
PHQV | ≤ 0.2
QRCS | 0.693
QQVE | ≤ 0.2
DLRR | ≤ 0.2

Variant | one-hybrid fitness for binding NBS DNA
ISLF | ≤ 0.2
ETRC | ≤ 0.2
VCHR | ≤ 0.2
GSNI | ≤ 0.2
CAFR | ≤ 0.2
QWCL | ≤ 0.2
LTCV | ≤ 0.2
CDYR | ≤ 0.2
CTCA | ≤ 0.2
LSEC | ≤ 0.2
TART | ≤ 0.2
VVTT | ≤ 0.2
RFQE | ≤ 0.2
VYRG | ≤ 0.2
HKYR | ≤ 0.2
WYRV | ≤ 0.2
YFNS | ≤ 0.2
DLKP | ≤ 0.2
SNGD | ≤ 0.2
TKKM | ≤ 0.2
PHSL | ≤ 0.2
QVNY | ≤ 0.2
TSTA | ≤ 0.2
LISS | ≤ 0.2

Variant | one-hybrid fitness for binding NBS DNA
QQDV | ≤ 0.2
TKQS | ≤ 0.2
ARLT | ≤ 0.2
PQAF | ≤ 0.2
HYRA | ≤ 0.2
SFEA | ≤ 0.2
GYDS | ≤ 0.2
MRTR | ≤ 0.2
GRLT | ≤ 0.2
DGDN | ≤ 0.2
ICLN | ≤ 0.2
RQGR | 0.447
KFFW | ≤ 0.2
ASFW | ≤ 0.2
RPRW | ≤ 0.2
LITI | ≤ 0.2
TRPS | ≤ 0.2
MHTS | ≤ 0.2
RVLS | 0.262
KGNH | ≤ 0.2
PARW | ≤ 0.2
CPME | ≤ 0.2
HTDC | ≤ 0.2
SNRG | ≤ 0.2

Variant | one-hybrid fitness for binding NBS DNA
QGRG | ≤ 0.2
LRGW | ≤ 0.2
YVYW | ≤ 0.2
QSWT | 0.348
QIRL | ≤ 0.2
LAQT | ≤ 0.2
RGWI | ≤ 0.2
ALGC | ≤ 0.2
MYGE | ≤ 0.2
MPSL | ≤ 0.2
APVF | ≤ 0.2
QSTE | ≤ 0.2
VETG | ≤ 0.2
NAPV | ≤ 0.2
DLSF | ≤ 0.2
CYCR | ≤ 0.2
MRFT | ≤ 0.2
FCTS | ≤ 0.2
NKHR | ≤ 0.2
WSDW | ≤ 0.2
RKHK | ≤ 0.2
HDFF | ≤ 0.2
KGQV | ≤ 0.2
NCNF | ≤ 0.2

Variant | one-hybrid fitness for binding NBS DNA
WDHS | ≤ 0.2
PRIL | ≤ 0.2
YIWG | ≤ 0.2
ELPA | ≤ 0.2
EGQA | ≤ 0.2
YRRY | ≤ 0.2
RMNM | ≤ 0.2
LSHI | ≤ 0.2
MAQY | ≤ 0.2
RPIF | ≤ 0.2
CTPC | ≤ 0.2
RRFW | ≤ 0.2
VRNC | ≤ 0.2
LFRQ | ≤ 0.2
AAWG | ≤ 0.2
PEVG | ≤ 0.2
FTCV | ≤ 0.2
QICS | 0.216

From a collection of fitness landscapes (doi:10.1016/j.celrep.2020.107928)
